A word on the EC50: it is the concentration that produces a half-maximal response. A high value points to a need for much substance. The IC50 is the concentration needed to halve the response being measured.

This note sets out measurements from patent publication EP0452101B1, “Spiro bridged and unbridged heterocyclic compounds” (ISRAEL INSTITUTE FOR BIOLOGICAL RESEARCH, priority 1990, dated 1991).

Read-outs that look alike come from different tables or passages of the source.

Assay [1] concerns guinea-pig ileum preparation. In words: tissue or blood. To be noted: Cavia porcellus.
Assay [2] relates to guinea-pig ileum preparation. To be noted: for EPMRACh: relative to ACh; for IC50: antagonist.
Where [3] appears, read: at the highest conc. tested (column Highest conc.).
The mark [4] stands for this setting: at the lowest conc. tested (column Lowest conc.).

On to `CC1=NCC2(CN3CCC2CC3)O1` (racemic) [AF125, 2-Methyl-spiro(1,3 oxazoline-5,3')quinuclidine], for which, in assay [1], the EC50 is 1.3 µM. Moreover, the EPMRACh entry in assay [2] is reported as “about 14”.

Take `c1ccc(C2=NCC3(CN4CCC3CC4)O2)cc1` (centres unmarked) [AF125(Ph), 2-Phenyl-spiro(1,3-oxazoline-5,3')quinuclidine]: in assay [2], the Remarks entry is recorded as “Antagonist”; the “agonistic and antagonistic activities” value was “antagonist”; the IC50 worked out at 0.7 µM. The compound further yielded an IC50 in assay [2] (listed as 15) of 0.9 µM. Also, the intensity of contractions entry in assay [2] (setting [3]) was “-”. Besides, in assay [2] (setting [4]), the intensity of contractions result was “-”.

With `CCC1=NCC2(CN3CCC2CC3)O1` (racemic) [AF123, 2-Ethyl spiro(1,3 oxazoline 5,3')quinuclidine], in assay [2], the Remarks entry was “Blocked reversibility ACh-induced contractions”. Moreover, the “agonistic and antagonistic activities” value in assay [2] is recorded as “antagonist”. The intensity of contractions result in assay [2] (setting [3]) and in assay [2] (setting [4]) was “-” in each case.

For the compound `CC1=NC2(CCN(C)CC2)CO1` [AF151, 1-methylpiperidine-4-spiro-4'-(2'-methyl-1',3'-oxazoline)], the midpoint of the response in assay [1], the EC50, lay at 3 µM. The “agonistic and antagonistic activities” value in assay [2] is listed as “full muscarinic agonist”.

As to `NC1=NCC2(CN3CCC2CC3)O1` (centres unmarked) [AF125(N), 2-Amino-spiro(1,3-oxazoline-5,3')quinuclidine], in assay [2], the Remarks entry is “Full agonist; contractions were blocked by atropine”; the “agonistic and antagonistic activities” value was “active as an agonist”. Besides, the intensity of contractions result in assay [2] (setting [4]) was “+”.

Take `CCC1=NC2(CCN(C)CC2)CO1` [Example 8, 1-Methylpiperidine-4-spiro-4'-(2'-ethyl-1',3'-oxazoline)]: the Remarks entry in assay [2] is on record as “Full agonist; contractions were blocked by atropine”. Besides, the intensity of contractions result in assay [2] (setting [4]) was “+”.

Compound `CC1=NCC2(CCN(C)CC2)O1` [AF150, 2-Methyl-spiro(1,3-oxazoline-5,4')-1'-methylpiperidine] displayed an EC50 in assay [1] of 0.8 µM. The “agonistic and antagonistic activities” value in assay [2] is “full muscarinic agonist”. In assay [2] (ACh=100%), the “maximal contraction of the ileum” value is recorded as 130%.

As to `CC1OC2(CS1)CN1CCC2CC1` (stereo not drawn) [AF102B, cis-2-methylspiro(1,3-oxathiolane-5',3)quinuclidine, reference compound], in assay [2], the EPMRACh is recorded as 50-100.
